The list shows a part of the results.
Experiments:
[1] = test system: HSkMC (human skeletal muscle cells); assay: cytotoxicity call (relative viability < 0.9); details: 10 µM
[2] = test system: HepG2; assay: cytotoxicity call (relative viability < 0.9); details: 10 µM
[3] = test system: S. aureus RN4220; assay: growth inhibition call (relative growth <= 0.2); details: 50 µM

CN(C)c1ccnc(CNS(C)(=O)=O)n1 was tested. Which cytotoxicity call [1] did it give?
The cytotoxicity call was “inactive”.

What about the cytotoxicity call [2] of the same molecule?
The cytotoxicity call was “inactive”.

What about the growth inhibition call [3] of the same molecule?
Its growth inhibition call is “inactive”.

What does the source list for O=C(CCCCCNC(=O)OCc1ccc(CO[C@H]2C[C@@H](C3CCCCC3)C=C(C(=O)N3CCN(Cc4ccc5c(c4)OCO5)CC3)O2)cc1)NO?
cytotoxicity call [1]: inactive; cytotoxicity call [2]: inactive; growth inhibition call [3]: inactive

C[C@H]1CN([C@@H](C)CO)C(=O)c2cc(NS(=O)(=O)c3cccs3)ccc2O[C@@H]1CN(C)Cc1ccncc1 was tested. Which cytotoxicity call [1] did it give?
Its cytotoxicity call is “inactive”.

What about the cytotoxicity call [2] of the same molecule?
The cytotoxicity call was “inactive”.

And the growth inhibition call [3]?
The growth inhibition call was “inactive”.

For C[C@@H]1CN([C@@H](C)CO)C(=O)c2cc(NC(=O)Nc3ccccc3)ccc2O[C@@H]1CN(C)Cc1ccc(Oc2ccccc2)cc1, which cytotoxicity call [1] is on record?
The cytotoxicity call was “active”.

What about the cytotoxicity call [2] of the same molecule?
Its cytotoxicity call is “active”.

What about the growth inhibition call [3] of the same molecule?
Its growth inhibition call is “inactive”.

How did the cytotoxicity call [1] turn out when C[C@H](CO)N1C[C@H](C)[C@H](CN(C)C(=O)Cc2ccccc2)OCCCC[C@H](C)Oc2ccc(NS(=O)(=O)c3ccc(F)cc3)cc2C1=O was run?
The cytotoxicity call was “inactive”.

What about the cytotoxicity call [2] of the same molecule?
The cytotoxicity call was “inactive”.

And the growth inhibition call [3]?
Its growth inhibition call is “inactive”.

CO/N=C(\C(=O)N[C@@H]1C(=O)N2C(C(=O)O)=C(CSC(=O)c3ccco3)CS[C@H]12)c1csc(N)n1 was tested. Which cytotoxicity call [1] did it give?
Its cytotoxicity call is “inactive”.

What about the cytotoxicity call [2] of the same molecule?
The cytotoxicity call was “inactive”.

And the growth inhibition call [3]?
Its growth inhibition call is “active”.

Which cytotoxicity call [1] does the source give for C[C@@H]1CCCCO[C@H](CN(C)C(=O)Nc2ccc3c(c2)OCO3)[C@H](C)CN([C@@H](C)CO)C(=O)c2cc(NC(=O)c3ccccc3)ccc2O1 here?
The cytotoxicity call was “inactive”.

And the cytotoxicity call [2]?
The cytotoxicity call was “inactive”.

What about the growth inhibition call [3] of the same molecule?
The growth inhibition call was “inactive”.

With CN1CCN(C(=O)C[C@@H]2C=C[C@@H](NC(=O)c3ccc4c(c3)OCO4)[C@@H](CO)O2)CC1 as the molecule, how does the cytotoxicity call [1] read?
Its cytotoxicity call is “inactive”.

What about the cytotoxicity call [2] of the same molecule?
Its cytotoxicity call is “inactive”.

What about the growth inhibition call [3] of the same molecule?
The growth inhibition call was “inactive”.

For C[C@H]1CN([C@@H](C)CO)C(=O)c2cc(NC(=O)Nc3ccccc3)ccc2O[C@@H]1CN(C)C(=O)Nc1cccc2ccccc12, which cytotoxicity call [1] is on record?
Its cytotoxicity call is “inactive”.

And the cytotoxicity call [2]?
Its cytotoxicity call is “inactive”.

And the growth inhibition call [3]?
The growth inhibition call was “inactive”.
